The list shows a part of the results. The list includes weakly bound sequences.
Target: MaxL homodimer (UniProt P61244)
Assay: universal protein-binding microarray (PBM)
Conditions: PBS-based mixture, 10 nM His-tagged protein dimer, 2% milk, 200 ng/uL BSA, 50 ng/uL salmon testes DNA, 0.02% TX-100; detection with Alexa 488 anti-His …; high values mean tight binding; most listed sequences are background and not binding sites; double strand, one strand shown

UniProt P61244, sequence (P61244 whole entry): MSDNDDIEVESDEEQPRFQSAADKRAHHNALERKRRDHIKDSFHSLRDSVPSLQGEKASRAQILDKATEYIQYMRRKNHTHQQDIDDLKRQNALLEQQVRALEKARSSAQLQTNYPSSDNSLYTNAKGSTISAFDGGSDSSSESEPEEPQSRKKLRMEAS

Sequence | binding signal (normalized occupancy)
AGTCGTGA | 0.0749
CGGATTGA | 0.0709
AGTATCCC | 0.0806
CGTGTTTC | 0.0838
GGAAGACA | 0.0718
AAGATACT | 0.0762
TATGCATA | 0.0811
AGGGTCCC | 0.0702
CCGCTAGA | 0.0691
CCATGCTC | 0.0989
ACGGATTC | 0.0741
GAATTGCA | 0.0746
CCATCATC | 0.0845
CTAAAACC | 0.0748
AGAACACC | 0.0771
ACACCGGT | 0.076
CCATAGCC | 0.0762
AGTCACAA | 0.0805
GCATCCCC | 0.0804
CAACCTAA | 0.0744
ATCGCAAA | 0.0676
GCAGACGC | 0.0701

Sequence | binding signal (normalized occupancy)
AGCAATTC | 0.0722
GGTAATAC | 0.0772
CAATTCGC | 0.0734
AGCTCTAA | 0.0711
ATAGCTCC | 0.0755
CCCGTAAA | 0.0752
CGAGTCGA | 0.0685
GCATCAAC | 0.073
CTATGCTC | 0.0822
TATCACGA | 0.0859
ACGATGGG | 0.0824
ATCTGTTC | 0.0795
ACCAACTA | 0.0737
AAGATCGT | 0.0775
CTCGTCTA | 0.0671
GCTACTCC | 0.0693
AGAACTAA | 0.0778
GTTCAGTA | 0.0782
CATACATG | 0.0969
GTAGGAAC | 0.0696
AAATACGC | 0.0746
TGCGGAAA | 0.0767

Sequence | binding signal (normalized occupancy)
ATGTACTG | 0.0815
GTAGATGA | 0.0801
ATCTCCCA | 0.0787
CGGTTGCA | 0.0736
CATATATG | 0.0911
AGTTTCTG | 0.074
ATGAGCAC | 0.0858
GCTTCCAA | 0.0699
TAGGGACA | 0.0764
ACTCCAGG | 0.0738
CGATTCAA | 0.0749
ACCGCTCT | 0.0676
ACGTATTC | 0.079
GGAGTACC | 0.0698
GACTCGCC | 0.0703
CCTTTAGA | 0.0706
CTAGCGAG | 0.0671
AAGTGTAT | 0.0806
TCAACAAA | 0.0803
CCGGCGGA | 0.0707
CCAAGGCG | 0.0739
CACCTCAC | 0.0869

Sequence | binding signal (normalized occupancy)
ACCGTGAG | 0.0742
CGGTGAGC | 0.0684
AGAGGCCC | 0.0691
GGTCGAAC | 0.0698
CTCCGCGC | 0.0692
ATGGTGGA | 0.0768
CAATAGTC | 0.0732
GCCCGTTA | 0.0706
CACGGTTC | 0.0767
CCTTCGCC | 0.0711
CCTCGTAG | 0.0748
ACTTGAGC | 0.0721
CAATGTCG | 0.0786
CCCATCTC | 0.0798
AGTTCGGC | 0.0685
CAACACGA | 0.0817
TGGCCGAA | 0.0707
CCTTGGTA | 0.0731
GTATTTCA | 0.0722
CTCCCGCA | 0.0776
AATCATCA | 0.0786
CACGTGCG | 0.641

Sequence | binding signal (normalized occupancy)
CCAACTAA | 0.0782
CGTCCCAC | 0.0771
CAAGCTGG | 0.0721
GTACCGTA | 0.075
CCCTCTTA | 0.0705
CCCGGAAC | 0.0679
AAAAAAGA | 0.0729
GGTCCCGA | 0.0733
TCCGGACA | 0.0755
CGCCGACA | 0.0744
AGTTTGGG | 0.0716
ACTCGACA | 0.0757
ATACGTAA | 0.0767
AACACTAT | 0.082
GCTACCCA | 0.0757
AACATCCG | 0.0746
ATTTGTGG | 0.0793
AACCTAGA | 0.0755
ACGGGTCT | 0.0823
GCACTCGC | 0.0699
AGTTGAAC | 0.0762

Reference: PMC4242493
